# Over roughly 33,000 sequences, “E-score (-0.5 to 0.5)” has its median near -0.043; the highest 2% begin near 0.37. The list shows a part of the results.
# Biological target: T1, Upc2 (UniProt Q12151)
# T1 sequence: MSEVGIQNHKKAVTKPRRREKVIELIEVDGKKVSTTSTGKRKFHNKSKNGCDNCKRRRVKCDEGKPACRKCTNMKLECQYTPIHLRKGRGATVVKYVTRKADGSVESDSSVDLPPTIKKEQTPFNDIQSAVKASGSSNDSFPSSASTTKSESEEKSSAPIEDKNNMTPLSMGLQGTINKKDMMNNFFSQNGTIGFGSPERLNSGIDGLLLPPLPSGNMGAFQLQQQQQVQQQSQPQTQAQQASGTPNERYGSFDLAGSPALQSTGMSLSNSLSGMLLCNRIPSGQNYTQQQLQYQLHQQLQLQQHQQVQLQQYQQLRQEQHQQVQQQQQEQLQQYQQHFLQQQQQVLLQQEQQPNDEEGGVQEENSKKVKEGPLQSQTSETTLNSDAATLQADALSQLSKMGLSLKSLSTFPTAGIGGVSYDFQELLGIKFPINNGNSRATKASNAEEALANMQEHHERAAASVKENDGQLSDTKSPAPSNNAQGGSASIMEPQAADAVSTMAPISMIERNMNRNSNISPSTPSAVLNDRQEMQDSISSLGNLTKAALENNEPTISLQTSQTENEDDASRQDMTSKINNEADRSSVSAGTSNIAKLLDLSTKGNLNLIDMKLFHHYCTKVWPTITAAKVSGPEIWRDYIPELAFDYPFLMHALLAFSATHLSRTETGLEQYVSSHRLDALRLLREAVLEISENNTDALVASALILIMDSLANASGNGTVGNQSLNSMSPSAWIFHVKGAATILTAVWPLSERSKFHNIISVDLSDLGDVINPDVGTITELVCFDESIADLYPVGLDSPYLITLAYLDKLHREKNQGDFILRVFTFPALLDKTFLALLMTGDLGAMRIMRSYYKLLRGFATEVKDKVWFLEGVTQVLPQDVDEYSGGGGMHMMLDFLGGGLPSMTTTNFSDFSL
# Test: PBM E-score (8-mer binding enrichment) (E-score (-0.5 to 0.5)); higher = stronger / more preferred TF binding; most listed sequences are background and not binding sites
# Conditions: protein concentration: 200 nM; construct: GST-full length
# Summary of the method: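 The E-score, a modified Wilcoxon-Mann-Whitney statistic, was computed by the Universal PBM Analysis Suite for every ungapped eight-base word pooled with its reverse complement. Scans behind it were normalised with masliner after bound GST-tagged yeast transcription factors were detected with fluorescent anti-GST. The proteins, at about 100-200 nM, had been applied to universal all-10-mer Agilent arrays made double-stranded by primer extension.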
row,Sequence,PBM E-score
1,GAGTTAGC,0.00639
2,CCTTCATA,0.0469
3,GCCCCGCC,0.112
4,ACTAACGA,0.276
5,CGTCGTGA,0.127
6,CAAGAAGC,-0.075
7,AGGCCTCA,-0.289
8,AGTAAACA,0.0452
9,GTCGTCTA,0.248
10,TCCCTCGA,-0.0965
11,CGAACGCG,0.185
12,GCAACTAA,-0.0788
13,CGTTTCGC,0.301
14,CTTACTAC,0.00475
15,ATCGCCCC,-0.152
16,GGAGGGAC,-0.118
17,CAGGACTG,-0.191
18,CCCCGGAC,-0.192
19,CACCCGGA,-0.086
20,CTTACAGC,-0.0579
21,CCACTCAG,-0.286
22,CAACGGAG,-0.242
23,GTCTCCAA,-0.0343
24,CCGACGTA,0.225
25,GTACTAAA,0.181

row,Sequence,PBM E-score
1,CCTCCTAC,-0.248
2,ATTTTTGG,-0.29
3,ACTAGTGC,-0.0458
4,CACACCCA,0.17
5,ACACTAAC,-0.0591
6,CGATAGAC,-0.052
7,AGCCCGCC,-0.0552
8,GAACGCTC,0.104
9,AGCAATCA,-0.0232
10,ACGCACCC,-0.112
11,CTCTGTAC,0.143
12,ATCAGAAT,0.00706
13,CTACGTTC,0.102
14,CTTCATGA,-0.188
15,ATATGACC,-0.201
16,CAGCATGG,-0.0753
17,AGGCAGGG,-0.2
18,AGGAGAGG,-0.24
19,CAGCGAGC,0.0418
20,ATAGGAAT,-0.0554
21,GAAATACC,-0.0219
22,GAAGCCCC,0.0139
23,CTTTGCTA,-0.169
24,GCGTTTAC,0.372
25,CGCCGTAA,0.285

row,Sequence,PBM E-score
1,AAGTCCCT,-0.223
2,TCCCCTCA,-0.343
3,GGAGAAGA,-0.344
4,CCCCCTCC,-0.366
5,GTGAGGCA,-0.0702
6,CTAAGGAA,0.0765
7,ACACATGG,-0.121
8,AAACTCGA,-0.0718
9,CTGCTCGA,-0.0837
10,ACCATATG,-0.125
11,TAGCCCCA,-0.142
12,CAGAAGAC,-0.0374
13,CGCGTGCC,0.0186
14,AGGTCCAG,0.0723
15,CCTGAGTC,-0.149
16,GAGAACGC,0.0326
17,ATGTGCCC,-0.109
18,AGGAGCAG,-0.185
19,CATTACTC,-0.105
20,GTAATGAA,-0.0986
21,AAACCATT,-0.227
22,CCGCATAG,0.089
23,GCTTAAAC,0.297
24,CTCGCCAA,0.0532
25,ACCATGTA,-0.188

row,Sequence,PBM E-score
1,ATTTGGTG,-0.0845
2,ATTCCGTA,0.27
3,ATCACCGG,-0.241
4,ACAGTTAC,0.0672
5,AACCACGC,-0.0526
6,CTATGGTA,-0.197
7,ACAATATC,0.125
8,CGGTCGGA,-0.0376
9,GCTCACGA,0.0766
10,GATTGTCC,-0.0545
11,CCGCCGGA,-0.256
12,AACCAAGC,-0.191
13,ATGCGTGA,-0.0524
14,ATGCTGTC,-0.189
15,TAAAGGAA,0.117
16,CGTAGACC,0.0738
17,CGCGTACA,0.35
18,AGTGCGTC,-0.103
19,GACCATAA,0.0712
20,ATAAGCCA,0.0295
21,ACAGGTGG,0.0641
22,CGCCCACA,-0.0806
23,AGCGTTCG,0.0144
24,ATAGGGCG,-0.0378
25,AGAGCTGC,-0.212

row,Sequence,PBM E-score
1,AGTATAGC,0.128
2,GATAATCC,-0.113
3,AAGGTAGC,-0.085
4,CCTGCACG,-0.0833
5,ATGCTACA,-0.0387
6,CTATTGAC,-0.166
7,CGTAAGAA,0.288
8,CTATCGTA,0.43
9,CAATTTTC,0.0889
10,AGATCCTC,0.112
11,ACCATGAG,-0.0554
12,CAATGAAC,0.077
13,ACACCACG,-0.0964
14,ATTATGGC,-0.176
15,CAAAATGA,-0.116
16,GTGGTATA,0.0869
17,AACATAAT,0.0318
18,CCTTATCC,-0.109
19,CCCCCTGA,-0.297
20,ACGAGCAA,0.326
21,AGGGGGCA,-0.253
22,CGATCCCA,0.0331
23,AAGAAACT,-0.0808
24,ATCTGTTA,0.0137
25,ACAATTCC,-0.355

row,Sequence,PBM E-score
1,ACAACGAA,0.195
2,CGCCGAAG,-0.0603
3,ACCACTGG,-0.0523
4,GCCCAGGC,-0.233
5,ACTGCAAT,-0.0195
6,ACTCGCGA,0.183
7,GACGCGCC,0.176
8,AGCAGCAG,-0.132
9,CGACCACA,0.121
10,CTACGGAG,-0.138
11,GCCAGACC,-0.138
12,CAAGCTAC,-0.00047
13,AGGGCTTG,-0.106
14,CGGGATAG,-0.0352
15,AGCTGGAG,-0.00115
16,ATGCGCCC,-0.105
17,CGTTGGGA,0.0328
18,GACAGTAA,-0.0697
19,TGAATAAA,0.0883
20,ATGAAGGG,-0.0382
21,CTACGTCA,-0.0626
22,CACGTTAG,-0.145
23,CACCAATC,-0.249
24,ACGAGTCT,0.293
25,CTGGCAGA,-0.107

row,Sequence,PBM E-score
1,CCGTGTCG,-0.0027
2,ACAGAGCC,-0.276
3,GTCAACTA,-0.294
4,ACAGCGGT,-0.15
5,GGCGTTAA,0.161
6,ATCACGGA,-0.0106
7,AATACGCG,0.19
8,CCCCTATA,0.0494
9,TATCATCA,-0.0809
10,ACTCGATA,0.0839
11,CATCGAAA,0.0196
12,AATGTCGG,0.139
13,AGAGCGCG,0.0869
14,ATCTCAAC,0.0568
15,CCCTATTA,-0.181
16,ACAGGGTG,-0.155
17,CAGGCCAA,-0.22
18,CCAAAGCG,-0.125
19,ATATTGGG,0.0143
20,AGTTAACT,-0.14
21,CATGTCAA,-0.0832
22,GAATCAGC,-0.265

# Source: the supplement of paper PMC3334620
